# Measurements reported in PMC10726135.
# The list shows a part of the results. At the low end of the ranking, values are background and their order means little. Measured with an extract: partners may take part in the binding.
# Biological target: T1, HNF4alpha2 (COS-7 nuclear extract) (UniProt P41235)
# T1 sequence: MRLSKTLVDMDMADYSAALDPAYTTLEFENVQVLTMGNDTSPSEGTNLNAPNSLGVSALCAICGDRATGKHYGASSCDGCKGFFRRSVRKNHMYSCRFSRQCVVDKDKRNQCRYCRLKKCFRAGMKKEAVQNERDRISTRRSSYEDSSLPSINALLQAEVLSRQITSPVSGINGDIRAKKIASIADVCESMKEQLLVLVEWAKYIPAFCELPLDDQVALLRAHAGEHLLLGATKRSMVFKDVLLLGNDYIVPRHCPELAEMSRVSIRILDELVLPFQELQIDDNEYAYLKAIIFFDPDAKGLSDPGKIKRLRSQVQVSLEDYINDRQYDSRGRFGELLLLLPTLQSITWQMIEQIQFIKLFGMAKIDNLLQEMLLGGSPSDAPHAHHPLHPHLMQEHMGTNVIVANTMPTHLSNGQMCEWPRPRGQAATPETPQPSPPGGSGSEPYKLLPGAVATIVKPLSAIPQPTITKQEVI
# Test: protein-binding microarray
# Settings: COS-7 nuclear extract on double-stranded Agilent 4x180k PBM; binding buffer, salt, pH and temperature not given; high values mean tight binding; double strand, one strand shown; sequences stand for … in …GCCTAGGGAGATTAGAGTATCGGTCGA
row,Sequence,binding signal (log2 normalized intensity)
1,CAAGTATTTTCAGCCACCTTTATCTGATCA,1.49
2,AGAAAGCAGCCATAGACGATGTGTAAACAA,-1.01
3,CGTTCCCCGAGCGAGCTCCGTGCGGGAGGC,-0.646
4,GCAAAGGTCACTCTTGCTATGCCTTAGCAA,-1.1
5,GTGCAAAGGTTAAAATGCCCTCACAGGTTC,1.61
6,ATATAATCATTCATGGGCCAAAGTTTGTTT,1.7
7,GTATGGTAAGGTCGACCTTTAAACGTTTGC,4.9
8,TTCATTGCACTTTGCCCTCTCTTCAGCACC,5.49
9,AAAGTTCAGTTGCAAAGAACAGAATCCAGT,-1.05
10,CAGCAGCGGATCCAACCTGTTCTTTTGAGC,-0.214
11,TATTAGGCAAAAGAGATAGCGAGAAGGCAG,-0.84
12,TTTGTTCACCCACCAGAGGGAACGCCCGAC,-1.16
13,ATTGGGTCCACACATTCCTAGACCTTTGAC,3.26
14,CCAGTGGAGTAGGCTTTAGATAAGGTATGT,1.29
15,CGGTCAAGTCAGAGGCCCAGCAAGGAGAAA,-1.05
16,AGATACAGGTCAGACCCTGGAATTCCAGAA,-0.969
17,CATGGCAGATGTCTGTGTTCACATAGGGGC,1.29
18,AAAGAGCTTTTGGGCAGAGACTATGTGGTT,1.58
19,AGAGCAGTTCAGCTCTCTTTGCTCTCCTCC,-1.11
20,AAGTGTGGTCAAGGGTCAGTTTCTGAGAGT,3.65
21,GAAGTGTTTGTCAAGCTCAATGCAACCAGT,-1.07
22,ATCCCAATTCACTGACACAAATTATGTCAG,-1.07
23,TGTACCTCTGGTGATTACCAGTTATTACGG,0.671
24,CAACACCCAGGCTTATCTCACTCCAAAGGC,-1.25

row,Sequence,binding signal (log2 normalized intensity)
1,CTCTCCCGCCTCTTGGCCTCCCCCTTCTGA,4.42
2,CCTCTGCACCCCACCAAGGACTGGACCACC,2.34
3,AATCTACAAATGTTTCAACATGACAGATAA,-0.659
4,ATTCCACTGACTGCTTTATCAGTGTAGTTT,1.43
5,CTTGTAATTCAAGACTATAGACTGTGATAA,-0.305
6,TCTTTCTCAAGCCAGACTGGTTTTTCTTGG,1.53
7,GGCTAGGCTGATAAGGAGGGTAACAATGCT,-1.25
8,AACCCTAATCCACATGCTATTATTTTCCAT,-0.922
9,AGAGAAGCACTGCAGTTTAAGTCTGAAGGC,-1.19
10,CTTTAAGTGTGGGGTGACTGACTTAACCCT,1.77
11,GCCAGGAAGCAATGGCCCTCAGCAAACCTT,-1.24
12,GGACTTTCAGGAATGCACCCTTTTGACCAC,2.88
13,AGATGAGATGGTCAAAGGTTGATGGTATGT,3.25
14,CCAGGGAGTGCAGCTGCAGGTGTGGGGGCG,-0.79
15,TTGGAACCTGAAAGAGCAACTACTCTCTCT,-1.04
16,CTTCTCCGCGGCGGGCCCTCGACCTTTGCC,5.07
17,CCGGCACGGTTTCGTGGGGACCCAGGCTTG,-1.17
18,ATTGACATTTGGGGTCAGATAATTCTTTGC,1.68
19,AAGGAGCAGATGGCTAGTGACTCAGAGCAT,-0.94
20,AGTGCTTTTCAATCTTATTTTTACTATGTG,2.26
21,CCCTTGCTTGACCCATTATGGCCACTGTGT,0.863
22,ACCAAGTGAACTGTGACCTGATGACAAAGG,1.38
23,TGACAACCAGGGCAGGGAAAGGGGGTTTGC,-1.14
24,CCCACCCCCCTGCTCCAGGCCGGCTTGCGT,4

row,Sequence,binding signal (log2 normalized intensity)
1,AACATTAGTATCACTGTGAAGACGTTAGGG,0.488
2,AGTCTTTGCCCCACTGCAAGTTGACATAAC,2.31
3,AGGCAAAGGCCACAGCTCAGATCACAAAAG,-1.11
4,CACTATCACCAGGATGGGCCATGACCTTTA,4.48
5,ATCTGACCCCTTCTTGACCTGCGTAGCCCA,2.16
6,CTCGGATCCTCTGGGCTGGCTTTCATTCCA,-1.2
7,TCCCTCTCACGGTAACAGCCGGAGAGGCAA,-1.11
8,TTCTCCCAGGCCATACAGATACCCAGGCAT,-1.04
9,GCTCCACCCAGTTCGTGCTTCTTGGCCTCT,1.63
10,GGTGCGACGAACGGGTAAATCCGGTTTGGG,-0.819
11,TTTTCGAGGAGTCAAAAGGTGTATGTGGAC,1.74
12,ATAGGGCTTGAAAAGAAGAAAAAACAGGTG,-0.738
13,TGAGTGCAAAGTCCCTAGAAGGGATCCAGC,1.23
14,GGGCTCCTTTGATCTCCGTGTTTGGAATTG,2.45
15,TACCTGGTTAAAAGGACAACCTTCGGCCGG,2.52
16,CAGAACTAGCAAGTGCCAAGATGCTAAGGC,-1.11
17,TATCCATTTATCTCAGGTGAGCAGAGGGAG,2.15
18,GAAAGGGTCAAAGGTTAAGCCATTGGGCAA,5.95
19,TCTCCCTCTAGAGCAAAAGACAAGTTGGTT,0.293
20,GGTCTAAAAGTAGCTGTTGGAATTTGGTCA,4.46
21,GGAAGCGATGGGCTGGCCCTGAGCCAAGGG,-1.16
22,TTGTAAATATAGGATCATGTTGTCTGCAAA,1.12
23,TTTGCTCACTGTAACCTTTGCCCCCCAAGT,8.54
24,ATTTAGGGTATTTCCTAAACCAACTATAGA,-0.852

row,Sequence,binding signal (log2 normalized intensity)
1,TCAAACATCACATTCCCCAGGCAATCTTCC,0.807
2,TCATGCCTTAGCTCTAGACATCGACCTTTG,5.8
3,TGTGGGGGCGGCAGGAGCCACAAGCCGGAG,-1.03
4,GCAATCACGCCTCAAATGAGCTTTTGATGA,-1.15
5,CTGTAAATAAATGTCATTTAAGACGAGTGG,0.65
6,GCTTTTCTCAAGTTCAGTCTTTATTGGTAC,1.76
7,GCTAAGTCCAAAGGTAAAAACTGGCTCTTA,2.65
8,CAGGAAGAACTGGTCCGCCTTCATTCCTAG,-1.09
9,GGGAGTTAATCACAGGATTTAAAGAATTCC,-1.11
10,AACAGGAGCAAATATCGCTTGTCTTACGGA,-1.13
11,GAGTGCAGGTGGGAGGGGTGGACTTTGGCT,5.38
12,ACTGGGGTGGAGATGCCGTCGGCACACACG,-1.08
13,TCATTCTCTGTTGCATGGTTGACATACTTC,1.38
14,GCTGGTTTGCCATTTGGAGAGAGTTTGGCC,1.78
15,TAGGAATTCCAAGAAGGCAGACTCAAGATA,-1.08
16,TTCACTTTCTCTTATAGCTCAACCCCCAAA,5.3
17,AAAAGTAGCTGTTGGAATTTGGTCACAGAA,2.34
18,TTGCCCTTAAGCAGCATGTAGTTTAGTTGG,2.64
19,GGAATTGGGAGGACAGATAAGGTCTGCTGA,-1.04
20,ATGGGGGAGCCACTGCAGCTTTCTGAGTAG,-1.04
21,TAGCTTGGTTTTTCTGGGACCAAGGGTCAG,4.01
